# Where a name gives a salt, the structure may show the parent alone. The name of at least one read-out is uncertain.
# Key:
# [1] = tested on: pancreatic ductal adenocarcinoma #03; assay: antitumor activity in mice against pancreatic ductal adenocarcinoma #03 (Panc 03); type: in vivo; conditions: Table 1; total dose mg/kg i.v. or p.o. by Example: 1:1739; 2:576; 4:570; 5:222; 6:124; 7:400; 8:304; 9:1395; 10:540; 11:855; 12:1298; 13:431; 14:448; 15:390; 16(a):1171; 17(f):1060; 18(e):128; 18(f):256; 19(e):610; 20(b):383; 21(c):208; 22:465; 23:1212; 24:203; 25:288; 26:654; 27:2594; 28:552; 29:2403; 31(c):248; 30(h):880; 33:1281; 34:248; 36:155; 37:32
# Experimental: (§1) Representative examples of the invention were tested for antitumor activity in mice according to the following procedure:
# (§2) The animals were pooled, implanted subcutaneously with 30 to 60 mg tumor fragments by 12-gauge trocar, and again pooled before unselective distribution to the various treatment and control groups. For early-stage treatment, chemotherapy was started within 1 to 5 days after tumor implantation while the number of cells was relatively small (10^7 to 10^8 cells). For advanced-stage treatment, chemotherapy was delayed until the tumor became relatively large (200 to 300 mg in size). A 300-mg tumor contains approximately 3×10^8 total cells. […] Tumors were measured with a caliper weekly (or twice weekly for the more rapidly growing tumors). Mice were sacrificed when their tumors reached 1500 mg (i.e., before they can cause the animal discomfort). Tumor weights were estimated from two-dimensional measurements.
# (§3) The treatment and control groups were measured when the control group tumors reached approximately 700 to 1200 mg in size (Median of Group). The median tumor weight of each group was determined (including zeros). […] A T/C value <10% is considered to indicate highly significant antitumor activity.
# (§4) The results are shown in Table I for pancreatic ductal adenocarcinoma #03 and in Table 2 for colon adenocarcinoma #38.
# colon adenocarcinoma #38 = assay: antitumor activity in mice against colon adenocarcinoma #38; type: in vivo; conditions: Table 2
# Experimental: as §1, §2, §3, §4
# [2] = i.v., total dose mg/kg by Example: 2:600, 5:960, 6:132, 7:840, 16(a):1000, 18(e):180
# [3] = i.v., total dose mg/kg by Example: 6:82, 16(a):690, 18(e):120
Compound,T/C [1] [%],T/C (colon adenocarcinoma #38; [2]) [%],also measured
"CN(C)CCNc1ccc(CN)c2sc3ccccc3c(=O)c12 [18(e), 4-(Aminomethyl)-l-[[2-dimethylamino)ethyl]amino]-9-oxothioxanthen-9-one dihydrochloride·1/2 hydrate]",82,51,T/C (colon adenocarcinoma #38; [3]): 3%
"CN(C)CCNc1ccc(CNS(C)(=O)=O)c2sc3ccccc3c(=O)c12.CS(=O)(=O)O [18(f), N-[[1-[[2-(Dimethylamino)ethyl]amino]-9-oxothioxanthen-4-yl]methyl]methanesulfonamide methanesulfonate]",0,–,–
"CCN(CC)CCNc1ccc(CNS(C)(=O)=O)c2sc3ccccc3c(=O)c12 [Example 6, N-[[1-[[2-(Diethylamino)ethyl]amino]-9-oxothioxanthen4-yl]methyl]methanesulfonamide]",0,0,T/C (colon adenocarcinoma #38; [3]): 4%
"CCN(CC)CCNc1ccc(C(N)=O)c2sc3ccccc3c(=O)c12 [Example 7, 1-[[2'-(Diethylamino)ethyl]amino]-9-oxothioxanthene-4-carboxamide]",0,16,–
"CCN(CC)CCNc1ccc(CNC(C)=O)c2sc3ccccc3c(=O)c12 [Example 10, N-[[1-[[2-(Diethylamino)ethyl]amino]-9-oxo-thioxanthen-4-yl]methyl]acetamide]",0,–,"T/C (colon adenocarcinoma #38; i.p., total dose mg/kg by Example: 10:340, 11:518): 0%; T/C (colon adenocarcinoma #38; p.o., total dose mg/kg by Example: 10:460, 11:885): 7%; T/C (colon adenocarcinoma #38; p.o., total dose mg/kg by Example: 10:740, 11:1709): 2%"
CCOP(=O)(NCc1ccc(NCCN(CC)CC)c2c(=O)c3ccccc3sc12)OCC [Example 12],36,–,–
"CCN(CC)CCNc1ccc(CNC(=O)OC)c2sc3ccccc3c(=O)c12 [Example 34, Methyl N-[[1-[[2-(diethylamino)ethyl]amino]-9-oxothioxanthen-4-yl]methyl]carbamate]",0,–,–
CCN(CC)CCNc1ccc(CNC(=O)OC)c2sc3ccc(OC)cc3c(=O)c12 [Example 36],0,–,–
